Reference: the RNAGym collection of RNA variant scans (doi:10.7554/elife.90254)
Read counts are not given, so values of variants with three or more changes are uncertain.

B1: OR4K15 (parent)
chain: GUUAACGGUCAUAGGCCAUGGAAACUAGGAGCACCAUUUCGCUGCCAGUGAAGAAAUGAACAAAGAAAAUCUGGGCCAGGCAGGCAUCAAAAGAAAUAGUCUUGCGCUCAACCAGAAAGUCUGUAAUCAUUUUAAGGGUA

Variants of: B1
Experiment: self-cleavage, relative activity (ratio to wild type); higher = more cleavage; in vitro, sequencing; the parent is a self-cleaving ribozyme

Row | Variant | self-cleavage
1 | GUUAACGGGCAUAGGCCAUGGAAACUAGGAGCACCAUUUCGCUGCCAGUGAAGAAGUGAACAAAGAAAAUCUGGGCCAGGCAGUCAUCAAAAGAAAUAGUCUUGCGCUCAACCAGAAAGUCUGUAAUCAUUUUAAGGGUA [U9G A56G G84U] | 0.63
2 | GUUAACGGGCAUAGGCCAUGGAAACUGGGAGCACCAUUUCGCUGCCAGUGAAGAAAUGAGCAAAGAAAAUCUGGGCCAGGCAGGCAUCAAAAGAAAUAGUCUUGCGCUCAACCAGAAAGUCUGUAAUCAUUUUAAGGGUA [U9G A27G A60G] | 0.57
3 | GUUAACGGGCAUAGGCCAUGGAAACUUGGAGCACCAUUUCGCUGCCAGUGAAGAAAUGAACAAAGAAAAUCUGGGCCAGGCAGGCAUCAAAAGAAAUAGUCUUGCGCUCAACCGGAAAGUCUGUGAUCAUUUUAAGGGUA [U9G A27U A114G A125G] | 0.17
4 | GUUAACGGGCAUAGGCCAUGGAAACUAGGAGCACCAUUUCGCUGCCAGUGAAGAAAUGAACAAAGAGAAUCUGGGCCAGGCAGGCAUCAAGAGAAAUAGUCUUGCGCUCAACCAGAAAGUCUGUAAUCAUUUUUAGGGUA [U9G A67G A91G A134U] | 1.06
5 | GUUAACGGCCAUAGGCCAUGGAAACUAGGAGCACCAUUUCGCUGCCAGUGAAGAAAUGAACAAAGAAAAUCUGGGCCAGGCAGGCAUCAAAAGAAAUAGUCUUGCGCCCAACCAGAAGGUCUGUAAUCAUUUUAAGGGUA [U9C U108C A118G] | 0.02
6 | GUUAACGGGCAUAGGCCAUGGAAACUAGGAGCACCAUUUCGCUGCCAGUGAAGAAGUGAACAAAGAAAAUCCGGGCCAGGCAGGCGUCAAAAGAAAUAGUCUUGCGCCCAACCAGAAAGUCUGUAAUCAUUUUAAGGGAA [U9G A56G U72C A86G U108C U139A] | 0.05
7 | GUUAACGGCCAUAGGCCAUGGAAACUAGGAGCACCAUUUCGCUGCCAGUGAAGAAAUGAACAAAGAAAAUCUGGGCCAGGCAGGCAUCAAAAGAAAUAGCCCUGCGCUCAACCAGAGAGUCUGUAAUCAUUUUAAGGGUA [U9C U100C U102C A117G] | 2.12
8 | GUUAACGGGCAUAGGCCAUGGAAACUAGGAGCACCAUUUCGCUGCCAGUGAAGAAAUGAGCAAAGAAAUUCUGGGCCAGGCAGGCAUCAAAAGAAAUAGUCUUGCGCUCAACCAGAAAGUCUGUAAUCAUUUUAAGGGUA [U9G A60G A69U] | 1.62
9 | GUUAACGGGCAUAGGCCAUGGAAACUAGGAGCACCAUUUCGCUGCCAGUGAAGAAAUGAACAAAGAAAAUCUGGGCCGGGCAGGCAUCAAGAGAAAUAGUCUUGCGCUCAACCAGAAAGUCUGUAAUCAUUUUAAGGGUA [U9G A78G A91G] | 0.37
10 | GUUAACGGCCAUAGGCCAUGGAAACUAGGAGCACCAUUUCGCUGCCAGUGAAGAAAUGAACAAAGAAAAUCUGGGCCAGGCAGGCAUCAAAAGAAAUAGCCUUGCGCUCAACCAGAAGGUCAGUAAUCAUUUUAAGGGUA [U9C U100C A118G U122A] | 2.14
11 | GUUAACGGCCAUAGGCCAUGGAAACUAGGAGCACCAUUUCGCUGCCAGUGAAGAAAUGAACAAAGAAAAUCUGGGCCAGGCAGGCAACAAAAGAAAUAGUCUUGCGCCCAACCAGAAAGUCUGUAAUCAUUUUAAGGGUA [U9C U87A U108C] | 0.04
12 | GUUAACGGGCGUAGGCCAUGGAAACUAGGAGCACCAUUUCGCUGCCAGUGAAGAAAUGAACAAAGAAAAUCUGGGCCAGGCAGGCAUCAAAAGAAAUAGUCUUGCGCUCAACUAGAAAGUCUGUAAUCAUUUUAAGGGUA [U9G A11G C113U] | 0.06
13 | GUUAACGGCCAUAGGCCAUGGAAACUAGGAGCACCAUUUCGCUGCCAGUGAAGAAAUGAACAAAGAAAAUCUGGGCCAGGCAGGCAUCAAAAGAAAUAGUCUUGCGCCCAACCAGAAAGUCCGUAAUCAUUUUAAGGGUA [U9C U108C U122C] | 0
14 | GUUAACGGCCAUAGGCCAUGGAAACUAGGAGCACCAUUUCGCUGCCAGUGAAGAAAUGAACAAAGAAAAUCUGGGCCAGGCAGGCAUCAAAAGAAAUAGUCAUGCGCUCAACCAGAAAGUCUGUAAUCAUUUUGAGGGUA [U9C U102A A134G] | 0.26
15 | GUUAACGGGCAUAGGCCAUGGAAACUAGGAGCACCAUUUCGCCGCCAGUGAAGAAAUGAACAAAGAGAAUCUGGGCCAGGCAGGCAUCAAAAGAAAUAGUCUUGCGCUCAACCAGAAAGUCUGUAAUCAUUUUAAGGGUA [U9G U43C A67G] | 0.84
16 | GUUAACGGGCGUAGGCCACGGAAACUAGGAGCACCAUUUCGCUGCUAGUGAAGAAAUGAACAAAGAAAAUCUGGGCCAGGCAGGCAUCAAAAGAAAUAGUCUUGCGCUCAACCAGAAAGUCUGUAAUCAUUUUAAGGGUA [U9G A11G U19C C46U] | 0.89
17 | GUUAACGGUAUUAGGCCAUGGAAACUAGGAGCACCAUUUCGCUGCCAGUGAAGAAAUGAACAAAGAAAAUCUGGGCCAGGCAGGCAUCAAAAGAAAUAGUCUUGCGCUCAACCAGAAGGUCUGUGAUCAUUUUAAGGGUA [C10A A11U A118G A125G] | 0.21
18 | GUUAACGGGCAUAGGCCAUGGAAACUAAGAGCACCAUUCCGCUGCCAGUGAAGAAAUGAACAAAGAAAAUCUGGGCCGGGCAGGCAUCAAAAGAAAUAGUCUUGCGCUCAACCAGAAAGUCUGUAAUCAUUUUAAGGGUA [U9G G28A U39C A78G] | 0.17
19 | GUUAACGGGCAUAGGCCAUGGGAACUAGGAGCACCAUUUCGCUGCCAGUGAAGAAAUGAACAAAGAAAAUCUGGGCUAGGCAGGCAUCAAAAGAAAUAGUCUUGCGCUCAACCAGAAAGUCUGUAAUCAUUUUAAGGGUA [U9G A22G C77U] | 1.63
20 | GUUAACGGGCAUAGGCCAUGGAAACUAGGAGCACCAUUUCGCUGCCAGUGAAGAAAUGAGCAAAGAAAAUCCGGGCCAGGCAGGCAUCAAAAGAAAUAGUCUUGCGCUCAACCAGAAAGUCUGUAAUCAUUUUAAGGGUA [U9G A60G U72C] | 0.21
21 | GUUAACGGCCAUAGGCCAUGGAAACUAGGAGCACCAUUUCGCUGCCAGUGAAGAAAUGAACAAAGAAAAUCUGGGCCAGGCAGGCAUCAAAAGAAAUAGUCCUGCGCUCAACCAGAAAGUCUGUAGUCAUUUUAAGGGUA [U9C U102C A126G] | 0.83
